Assay [1] concerns the target GST-E6 protein from HPV type 31 (Human papillomavirus type 31) (UniProt P17386). Kind of assay: pull-down; GST-E6 fusion proteins incubated with extract of 293 cells transfected with HA-ZO-1 or HA-ZO-2; extensive washing; western blot with anti-HA antibody; only the target purified. For orientation: Immunoblotting shows a protein as a band on a membrane.
The target of assay [2] is GST-E6 protein from HPV type 51 (Human papillomavirus type 51) (UniProt P26554). The description is as above.
For assay [3], the target named is GST-HPV-16E6 (Human papillomavirus type 16) (UniProt P03126). Described as above.
The target of assay [4] is GST-HPV-18-E6 (Human papillomavirus type 18) (UniProt P06463). The description is as above.
In assay [5] the target is GST-HPV-16E6 (Human papillomavirus type 16) (UniProt P03126). The assay can be described thus: pull-down; GST-E6 fusion proteins incubated with in vitro translated radiolabelled cellular protein (DLG1, hScrib or SNTB2); autoradiograph; only the target purified.
Assay [6] deals with GST-E6 protein from HPV type 31 (Human papillomavirus type 31) (UniProt P17386). Described as above.
The target of assay [7] is GST-E6 protein from HPV type 51 (Human papillomavirus type 51) (UniProt P26554). The description is as above.
In assay [8] the target is GST-HPV-16E6 (Human papillomavirus type 16) (UniProt P03126). The description is as above. This is another data set of the same source.
Assay [9] deals with GST-HPV-18-E6 (Human papillomavirus type 18) (UniProt P06463). Described as above.
Assay [10] deals with GST-E6 protein from HPV type 31 (Human papillomavirus type 31) (UniProt P17386). The assay can be described thus: pull-down; GST-E6 fusion proteins incubated with extract of 293 cells transfected with HA-ZO-1 or HA-ZO-2; extensive washing; western blot with anti-HA antibody; only the target purified. The source holds these as a separate data set.
The target in assay [11] is GST-E6 protein from HPV type 51 (Human papillomavirus type 51) (UniProt P26554). The assay is described as above. The source holds these as a separate data set.
Assay [12] has as its target GST-HPV-16E6 (Human papillomavirus type 16) (UniProt P03126). The description is as above. The source holds these as a separate data set.
The target in assay [13] is GST-HPV-18-E6 (Human papillomavirus type 18) (UniProt P06463). Described as above. This is another data set of the same source.

By UniProt entry, the sequences of proteins in these tests, tags left out.
UniProt P03126: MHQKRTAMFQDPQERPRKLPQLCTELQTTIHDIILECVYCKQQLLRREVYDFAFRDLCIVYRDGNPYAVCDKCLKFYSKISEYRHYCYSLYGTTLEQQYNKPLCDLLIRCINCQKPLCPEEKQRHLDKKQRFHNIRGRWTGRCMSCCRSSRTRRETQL
UniProt P06463: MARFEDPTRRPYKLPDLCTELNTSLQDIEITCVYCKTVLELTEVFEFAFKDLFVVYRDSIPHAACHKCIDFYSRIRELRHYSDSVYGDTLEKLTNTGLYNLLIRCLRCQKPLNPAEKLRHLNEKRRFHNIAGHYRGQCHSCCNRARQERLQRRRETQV
UniProt Q07157: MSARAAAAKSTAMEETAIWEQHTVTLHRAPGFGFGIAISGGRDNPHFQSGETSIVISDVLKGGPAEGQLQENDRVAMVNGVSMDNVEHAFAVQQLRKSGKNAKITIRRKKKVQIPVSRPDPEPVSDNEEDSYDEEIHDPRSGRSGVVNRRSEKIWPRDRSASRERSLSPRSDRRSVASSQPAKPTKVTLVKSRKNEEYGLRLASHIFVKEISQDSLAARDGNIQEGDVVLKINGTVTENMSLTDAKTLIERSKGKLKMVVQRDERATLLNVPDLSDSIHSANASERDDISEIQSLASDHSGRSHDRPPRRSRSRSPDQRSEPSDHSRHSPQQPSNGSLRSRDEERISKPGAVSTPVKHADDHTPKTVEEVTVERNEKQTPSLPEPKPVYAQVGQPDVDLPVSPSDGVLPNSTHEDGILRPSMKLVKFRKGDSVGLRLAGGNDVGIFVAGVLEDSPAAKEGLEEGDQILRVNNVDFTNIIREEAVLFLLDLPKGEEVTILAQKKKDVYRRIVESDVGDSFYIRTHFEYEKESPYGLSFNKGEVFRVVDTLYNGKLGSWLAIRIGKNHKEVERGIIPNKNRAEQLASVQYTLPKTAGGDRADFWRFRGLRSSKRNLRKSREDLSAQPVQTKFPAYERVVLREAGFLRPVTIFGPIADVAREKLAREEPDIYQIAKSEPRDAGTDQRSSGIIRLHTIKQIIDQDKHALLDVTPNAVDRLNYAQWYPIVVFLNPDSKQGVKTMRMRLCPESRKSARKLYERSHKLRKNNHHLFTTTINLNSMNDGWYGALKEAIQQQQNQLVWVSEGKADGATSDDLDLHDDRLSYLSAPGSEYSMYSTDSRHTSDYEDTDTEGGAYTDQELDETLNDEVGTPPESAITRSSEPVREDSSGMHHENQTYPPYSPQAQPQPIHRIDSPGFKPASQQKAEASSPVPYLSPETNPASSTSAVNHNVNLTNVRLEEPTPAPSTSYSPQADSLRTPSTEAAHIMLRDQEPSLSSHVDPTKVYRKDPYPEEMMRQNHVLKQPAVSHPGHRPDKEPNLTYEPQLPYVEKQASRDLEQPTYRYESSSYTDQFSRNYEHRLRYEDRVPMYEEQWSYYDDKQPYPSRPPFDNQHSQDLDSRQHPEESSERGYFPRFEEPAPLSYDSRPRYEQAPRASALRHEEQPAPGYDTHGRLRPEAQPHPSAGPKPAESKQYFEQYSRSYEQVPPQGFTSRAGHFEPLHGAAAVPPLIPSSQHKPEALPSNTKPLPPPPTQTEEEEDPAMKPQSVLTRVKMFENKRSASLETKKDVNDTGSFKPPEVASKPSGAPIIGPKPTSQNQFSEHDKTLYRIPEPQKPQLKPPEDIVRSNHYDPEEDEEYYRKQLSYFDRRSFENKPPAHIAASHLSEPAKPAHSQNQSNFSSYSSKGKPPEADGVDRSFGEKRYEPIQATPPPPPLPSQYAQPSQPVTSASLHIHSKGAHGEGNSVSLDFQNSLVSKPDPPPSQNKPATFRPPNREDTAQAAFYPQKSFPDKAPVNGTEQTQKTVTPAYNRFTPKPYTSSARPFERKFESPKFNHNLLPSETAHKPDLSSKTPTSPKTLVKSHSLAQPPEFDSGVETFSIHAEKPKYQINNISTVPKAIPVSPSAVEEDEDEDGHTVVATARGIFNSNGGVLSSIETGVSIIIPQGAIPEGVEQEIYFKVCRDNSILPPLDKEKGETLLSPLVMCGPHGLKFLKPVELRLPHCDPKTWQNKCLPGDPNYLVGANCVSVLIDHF
UniProt Q14160: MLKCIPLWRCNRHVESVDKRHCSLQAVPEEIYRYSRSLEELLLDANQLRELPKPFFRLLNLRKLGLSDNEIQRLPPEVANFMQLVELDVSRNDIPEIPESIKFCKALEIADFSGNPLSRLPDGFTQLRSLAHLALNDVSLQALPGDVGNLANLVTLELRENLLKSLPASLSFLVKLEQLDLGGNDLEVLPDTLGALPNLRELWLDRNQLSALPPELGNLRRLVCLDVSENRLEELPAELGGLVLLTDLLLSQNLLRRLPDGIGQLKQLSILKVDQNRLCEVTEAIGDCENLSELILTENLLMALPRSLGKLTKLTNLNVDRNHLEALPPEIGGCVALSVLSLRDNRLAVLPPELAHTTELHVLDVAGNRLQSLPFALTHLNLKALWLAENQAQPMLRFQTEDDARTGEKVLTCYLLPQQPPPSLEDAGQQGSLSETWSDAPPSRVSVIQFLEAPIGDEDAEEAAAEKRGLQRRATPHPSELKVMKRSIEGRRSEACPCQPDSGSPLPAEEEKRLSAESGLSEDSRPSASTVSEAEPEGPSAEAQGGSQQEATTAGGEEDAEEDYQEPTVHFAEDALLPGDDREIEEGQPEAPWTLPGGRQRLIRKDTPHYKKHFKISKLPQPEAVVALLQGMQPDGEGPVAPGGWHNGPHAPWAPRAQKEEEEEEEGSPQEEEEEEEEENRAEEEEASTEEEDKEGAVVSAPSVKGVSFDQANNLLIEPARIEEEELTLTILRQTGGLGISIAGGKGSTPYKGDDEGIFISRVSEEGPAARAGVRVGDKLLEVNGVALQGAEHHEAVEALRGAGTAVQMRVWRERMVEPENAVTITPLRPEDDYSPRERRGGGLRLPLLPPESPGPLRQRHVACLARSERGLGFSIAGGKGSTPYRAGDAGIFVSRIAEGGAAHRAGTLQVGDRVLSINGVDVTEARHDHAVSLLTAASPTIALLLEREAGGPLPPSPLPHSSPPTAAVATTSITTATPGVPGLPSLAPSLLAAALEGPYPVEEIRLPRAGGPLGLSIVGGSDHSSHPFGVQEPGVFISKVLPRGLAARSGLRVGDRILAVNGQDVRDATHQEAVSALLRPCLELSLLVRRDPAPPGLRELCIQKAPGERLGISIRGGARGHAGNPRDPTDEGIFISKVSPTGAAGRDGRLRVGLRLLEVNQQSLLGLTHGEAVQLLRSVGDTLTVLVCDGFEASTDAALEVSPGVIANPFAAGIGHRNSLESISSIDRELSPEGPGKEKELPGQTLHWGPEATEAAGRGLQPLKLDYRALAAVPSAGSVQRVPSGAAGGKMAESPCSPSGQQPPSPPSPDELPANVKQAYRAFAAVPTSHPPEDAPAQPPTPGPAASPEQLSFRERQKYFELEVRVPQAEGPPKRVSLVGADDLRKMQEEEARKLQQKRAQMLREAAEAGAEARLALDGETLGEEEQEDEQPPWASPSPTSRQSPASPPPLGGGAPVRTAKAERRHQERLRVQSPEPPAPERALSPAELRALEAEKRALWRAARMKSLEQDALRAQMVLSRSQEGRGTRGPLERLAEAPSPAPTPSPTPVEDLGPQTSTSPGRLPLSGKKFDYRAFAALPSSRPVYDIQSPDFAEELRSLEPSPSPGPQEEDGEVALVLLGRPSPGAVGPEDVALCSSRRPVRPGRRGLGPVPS

Results are given in words; binding and its absence hold for the method and conditions named. Binding seen in cells or lysates may run through a third protein. Some binding calls cover weakened binding; strength is not graded here. For some of these results: Tags and fused reporters may be left off the sequences shown.

With HA-ZO-1 (from UniProt Q07157 1-1748), the binding result in assay [1], in assay [2], in [3] and in assay [4] was “no binding” each time.

On to “in vitro translated radiolabelled hScrib (from UniProt Q14160 1-1655)”, for which, in assay [5], the binding entry is recorded as “binds”.

B1: in vitro translated, radiolabelled SNTB2 (protein, UniProt Q13425 1-540)
chain: MRVAAATAAAGAGPAMAVWTRATKAGLVELLLRERWVRVVAELSGESLSLTGDAAAAELEPALGPAAAAFNGLPNGGGAGDSLPGSPSRGLGPPSPPAPPRGPAGEAGASPPVRRVRVVKQEAGGLGISIKGGRENRMPILISKIFPGLAADQSRALRLGDAILSVNGTDLRQATHDQAVQALKRAGKEVLLEVKFIREVTPYIKKPSLVSDLPWEGAAPQSPSFSGSEDSGSPKHQNSTKDRKIIPLKMCFAARNLSMPDLENRLIELHSPDSRNTLILRCKDTATAHSWFVAIHTNIMALLPQVLAELNAMLGATSTAGGSKEVKHIAWLAEQAKLDGGRQQWRPVLMAVTEKDLLLYDCMPWTRDAWASPCHSYPLVATRLVHSGSGCRSPSLGSDLTFATRTGSRQGIEMHLFRVETHRDLSSWTRILVQGCHAAAELIKEVSLGCMLNGQEVRLTIHYENGFTISRENGGSSSILYRYPFERLKMSADDGIRNLYLDFGGPEGELTMDLHSCPKPIVFVLHTFLSAKVTRMGLLV
modifications: radiolabelled
For B1, the binding entry in assay [6], in [7], in [8] and in [9] was “binds” each time.

B2: HA-ZO-2 (protein, UniProt Q9UDY2 1-1190)
chain: MPVRGDRGFPPRRELSGWLRAPGMEELIWEQYTVTLQKDSKRGFGIAVSGGRDNPHFENGETSIVISDVLPGGPADGLLQENDRVVMVNGTPMEDVLHSFAVQQLRKSGKVAAIVVKRPRKVQVAALQASPPLDQDDRAFEVMDEFDGRSFRSGYSERSRLNSHGGRSRSWEDSPERGRPHERARSRERDLSRDRSRGRSLERGLDQDHARTRDRSRGRSLERGLDHDFGPSRDRDRDRSRGRSIDQDYERAYHRAYDPDYERAYSPEYRRGARHDARSRGPRSRSREHPHSRSPSPEPRGRPGPIGVLLMKSRANEEYGLRLGSQIFVKEMTRTGLATKDGNLHEGDIILKINGTVTENMSLTDARKLIEKSRGKLQLVVLRDSQQTLINIPSLNDSDSEIEDISEIESNRSFSPEERRHQYSDYDYHSSSEKLKERPSSREDTPSRLSRMGATPTPFKSTGDIAGTVVPETNKEPRYQEDPPAPQPKAAPRTFLRPSPEDEAIYGPNTKMVRFKKGDSVGLRLAGGNDVGIFVAGIQEGTSAEQEGLQEGDQILKVNTQDFRGLVREDAVLYLLEIPKGEMVTILAQSRADVYRDILACGRGDSFFIRSHFECEKETPQSLAFTRGEVFRVVDTLYDGKLGNWLAVRIGNELEKGLIPNKSRAEQMASVQNAQRDNAGDRADFWRMRGQRSGVKKNLRKSREDLTAVVSVSTKFPAYERVLLREAGFKRPVVLFGPIADIAMEKLANELPDWFQTAKTEPKDAGSEKSTGVVRLNTVRQIIEQDKHALLDVTPKAVDLLNYTQWFPIVIFFNPDSRQGVKTMRQRLNPTSNKSSRKLFDQANKLKKTCAHLFTATINLNSANDSWFGSLKDTIQHQQGEAVWVSEGKMEGMDDDPEDRMSYLTAMGADYLSCDSRLISDFEDTDGEGGAYTDNELDEPAEEPLVSSITRSSEPVQHEESIRKPSPEPRAQMRRAASSDQLRDNSPPPAFKPEPPKAKTQNKEESYDFSKSYEYKSNPSAVAGNETPGASTKGYPPPVAAKPTFGRSILKPSTPIPPQEGEEVGESSEEQDNAPKSVLGKVKIFEKMDHKARLQRMQELQEAQNARIEIAQKHPDIYAVPIKTHKPDPGTPQHTSSRPPEPQKAPSRPYQDTRGSYGSDAEEEEYRQQLSEHSKRGYYGQSARYRDTEL
Take B2: the binding entry in assay [10], in assay [11], in assay [12] and in assay [13] was “binds” in each case.

(Values after PMC4970744.)
